# Data from ChEMBL document CHEMBL4888484, “Replenishing the malaria drug discovery pipeline: Screening and hit evaluation of the MMV Hit Generation Library 1 (HGL1) against asexual blood stage Plasmodium falciparum ,using a nano luciferase reporter read-out” (2022).
# About 540 (0.36%) of roughly 150,000 compounds showed an effect of 50% or more. Some of the results follow.
# System: Plasmodium falciparum
# Experiment: Primary screen in NF54 nanoGlo assay, in single point, at 2uM, 72h; a lower Z score goes with more inhibition
# Format: functional, Erythrocyte
# Details: timepoint 72 hour
SMILES,% Inhibition [%],Z score
Cn1cc(C(=O)N2CCOC(C)(C)C2)c(=O)[nH]c1=O,-1,0.16
CC1(C)CC(=O)c2cn(-c3ccccc3)c(=O)c(C(=O)N3CCCCC3)c2C1,11,-1.26
COC[C@H]1CCN(Cc2ccc3c(c2)nnn3C)C1,-3,0.62
CC(C)n1cc2c(C(F)F)cc(=O)n(CCC(=O)Nc3ncc(Cl)cc3Cl)c2n1,31,-3.56
COc1ccc2c(c1)Oc1cc(C)ccc1N=C2N1CCCN(S(=O)(=O)c2cccc(Cl)c2)CC1,1,-0.07
Nc1nnnn1CC(=O)N1CCC[C@H]1c1nccs1,5,-0.48
COc1ccccc1Cn1c(CN2C(=O)c3ccccc3C2=O)nc2cccnc21,-10,1.94
CCC1(O)CN(C(=O)C(C)(C)C(F)F)C1,-17,1.98
CN(C)C(=O)CN1CC[C@H](NC(=O)c2c[nH]nc2-c2ccccc2)[C@@H](O)C1,-1,0.16
Cc1nc2cc(OCc3nc(C(=O)N(C)C[C@H](C)O)co3)ccc2s1,-6,1.15
COc1cc(CN2CC3(C)CC2CC(C)(C)C3)cc(OC)c1 (stereo unspecified),-6,1.14
C[C@@H](CC(F)(F)F)N1CCCNC(=O)C1,-1,0.11
O=C(Cc1cccc(C(F)(F)F)n1)N1CC2(C1)CS(=O)(=O)C2,-8,1.13
CC(C)CCOc1ccc(NC(=O)NC2CCC(C)S(=O)(=O)C2)nn1 (stereo unspecified),-8,1.34
Cc1cc(NC(=O)[C@H](C)N(C)Cc2nccn2C(F)F)on1,-8,1.53
CCCc1cnc(C)nc1N1C[C@@H]2c3ccc(OC)cc3OC[C@]2(CO)C1,-13,1.79
Cc1ccc(NC(=O)CN(C)S(=O)(=O)c2c[nH]c(C(=O)N3CCCCCC3)c2)c(Cl)c1,8,-0.83
CS(=O)(=O)NCCn1nc(-c2cnccn2)cc1C1CC1,32,-0.66
C=C(C)CN=C(N)Nc1ccccc1COC,-14,1.43
Cc1ccc([C@@H](NC(=O)CN2CCOCC2)c2cccnc2)c(C)c1,3,-0.54
CC(C)(C)c1ccc(OCCNC(=O)CN2CCC(=O)NC2=O)cc1,-4,0.86

SMILES,% Inhibition [%],Z score
c1cn(C2CCCN(CCOC3CCCCO3)C2)nn1 (stereo unspecified),-4,0.62
CNc1ncc(CN(C)C(=O)CCc2cc(C)cc(C)c2)cn1,-1,0.11
CN(CCn1cccn1)Cc1ncc(Br)cc1O,-1,0.1
O=C(NC[C@H]1CCS(=O)(=O)C1)c1ccc(Cl)cc1Cl,-6,0.91
CCC(C)n1ncc(NC(=O)N2CCC3C(CCCN3C)C2)c1C1CC1 (stereo unspecified),10,-1.11
O=C(COC(=O)c1ccc(Cl)cc1)Nc1ccc2c(c1)CCC2,-8,1.44
CC1OCCCC1C(=O)N(CCC(=O)O)Cc1ccccc1 (stereo unspecified),-22,2.38
CC1(C)CCCN(C(=O)c2ccc3ncccc3c2)[C@@H]1C#N,-13,1.27
Cc1nnc(CN(C)C[C@@H]2C[C@H](F)CN2Cc2cnn(C)c2)s1,-4,0.78
COc1cccc(-c2n[nH]c3c2CN(c2cc(C(N)=O)ccn2)CC3)c1,4,-0.76
Cc1ccc(C)c(N2CCN(C(=O)c3c(-c4ccccc4)nnc4ccc(C)cc34)CC2)c1,-12,1.65
O=C(NS(=O)(=O)[C@H]1CCCOC1)c1ccc(Br)o1,9,-1.12
c1coc(-c2nnc([C@H]3CCN(Cc4cc5ccccc5o4)C3)o2)c1,-3,0.43
Cc1csc(C(=O)NCC2(c3ccsc3)CCOCC2)c1,12,-1.82
CN(C)C(=O)N(CCNC(=O)c1ccsc1)C1CCOCC1,-8,1.27
COc1ccc(-n2ccnc2-c2cc3ccccc3[nH]c2=O)c(OC)n1,1,-0.13
CCC[C@@H]1C[C@H]1C(=O)NCc1oc(C(C)C)nc1C,-7,0.98
CCN1C[C@@H](CN(C)C(=O)c2cc(C(F)F)n[nH]2)CC1=O,2,-0.25
CCCCN(C)S(=O)(=O)NCc1ccc2c(c1)nc(C)n2C1CC1,-6,1.04
COc1ccc(CNC(=O)C2CCN(c3ncnc4oc(C)c(C)c34)CC2)c(OC)c1,-10,1.03
Cc1nc(N2C[C@H](NC(=O)CCC(F)(F)F)[C@@H](C(C)C)C2)no1,-8,1.55

SMILES,% Inhibition [%],Z score
COc1ccc(C(NC(=O)c2cncn2C)[C@H]2C[C@@H](O)C2)cc1F (stereo partly specified),12,-1.93
CCCN(C(=O)c1ccncc1)[C@H]1CC(=O)N(C)C1=O,-12,2.22
CC(C)(C)c1ccc(-c2cc(C(=O)N[C@H]3CCC[C@@H]3OCc3ccccc3)no2)cc1,-22,1.9
COc1cccc2c1CCCCN2C(=O)[C@H](C)c1cncnc1,-8,1
CN(C)CCN(C(=O)C1CC2CCC1C2)C1CCCCC1 (stereo unspecified),-8,1.56
CCc1nc(-c2cc(-c3ccccn3)n[nH]2)n(Cc2ccc3c(c2)OCO3)n1,-2,0.34
COc1ccc(-n2cc([C@H](C)NC(=O)c3n[nH]c(N)c3Cl)cn2)cc1,-8,0.79
Cc1cnn([C@H]2CCN(C(=O)NCc3nn(C)c4ccccc34)C2)c1,-44,5.16
O/N=C1/N[C@@H](/C=C/c2ccccc2)Nc2ccccc21,-10,1.99
Cc1ccc(S(=O)(=O)NC[C@H]2CCCO2)cc1C(=O)NC1CCCCC1,0,0.05
CN(C(=O)Nc1nc(C2CCOCC2)cs1)C1CCCC1C(C)(C)C (stereo unspecified),0,0.05
Cc1ccc(N2CCCN(Cc3cccc(OC(F)(F)F)c3)C2=O)c(NC(=O)NCc2ccccc2)c1,-8,0.78
Cc1cccc(CN2CCC[C@H](c3nnc(CN4CCCC4)n3C)C2)n1,-6,1.07
CCc1noc(CCNC(=O)[C@@H]2CCCN2C(C)=O)n1,-5,0.7
O=C(N[C@H]1CC[C@H](NC(=O)[C@@H]2CCCN2S(=O)(=O)c2cccc(C(F)(F)F)c2)CC1)c1ccccc1,-12,1.16
O=C1CCc2cc(C(=O)N3CCc4ncccc4C3)ccc2N1,-3,0.42
CC(=O)c1cn([C@@H](C)C(=O)NCc2cc(O)ncn2)c2ccccc12,-9,1.67
COCCCNS(=O)(=O)CC1CCCCC1,7,-1.37
Cn1ncnc1NC(=O)CCC1CCCC1,-2,0.45
COC(=O)CC(Cc1ccccc1)NS(=O)(=O)N1CCCC(C)C1 (stereo unspecified),6,-0.98
Cn1cnn(CCc2cc(Cl)c3c(c2)OCCCO3)c1=O,-8,0.73

SMILES,% Inhibition [%],Z score
O=C(Nc1ccc2c(c1)OCO2)c1ccccn1,0,0.07
CC(=O)N[C@@H](Cc1c[nH]c2ccccc12)C(=O)N1CCN(c2nccs2)CC1,2,-0.33
CCc1ccnc(C(=O)N[C@H]2CCN(c3cc(=O)n(C)c(=O)[nH]3)C2)c1,-14,1.59
Cc1ccc(C(=O)N2CCC3(CCC(=O)N([C@H]4CC[C@H](O)CC4)C3)CC2)cc1,2,-0.31
O=C(Cn1nc(N2CCOCC2)ccc1=O)N1CCN(c2cccc(Cl)c2)CC1,-8,1.37
CCN1CCC2(CCN(C(=O)CC3(c4ccccc4)CC(=O)N(Cc4cccs4)C3=O)C2)C1 (stereo unspecified),-1,0.11
C[C@H]1CCCN(S(=O)(=O)NCC(=O)Nc2ccccn2)C1,34,-4.88
Cc1nonc1C(=O)N1CCCN(CC2CC2)[C@H](C(C)C)C1,-6,0.6
COc1ccc(Nc2nnc(/C=C/c3ccc(Cl)cc3)c(=O)n2N)cc1,-32,3.73
Cc1ccc(S(=O)(=O)N[C@H](CO)CC(F)(F)F)o1,-15,1.67
CCN1C[C@H](CN(C)CC(=O)Nc2sc3c(c2C#N)CCC3)Oc2ccccc21,16,-1.88
O=C(Cn1cc(F)c(=O)n(CC(=O)Nc2ccccc2Cl)c1=O)Nc1ccccc1Cl,-1,0.12
Cc1ccc(-c2cccc(C(=O)NCCN3CCC[C@H](C(N)=O)C3)c2)o1,-1,0.12
CC(C)n1nccc1NC(=O)CN1CCCC1,-10,1.13
Cc1cccc(N2CCN(C(=O)c3cnn4c5c(cnc34)C(=O)CC(C)(C)C5)CC2)c1C,-12,1.67
CCN1CCN(Cc2cccc3cccnc23)C(C)(C)C1=O,-9,1.65
Cc1ccc(C2CCN(CC(=O)Nc3cccnn3)CC2)cn1,3,-0.48
CCc1nc(CN(C)Cc2cc(C)on2)cs1,-12,1.57
CCc1ccccc1NC(=O)CN1CC[C@H](C2CC2)C1,-11,2.18
COc1ccc2c(c1)CN([C@H]1CC(=O)N(CC(F)(F)F)C1=O)CC2,-1,0.12
